Measurements as given in publication PMC2970546.
Results are given in words; binding and its absence hold for the method and conditions named.

Assays:
Experiment in all cases: two-hybrid; LexA-septin bait (modified pBTM116) in yeast L40 screened against human fetal brain and human leukocyte cDNA libraries (pACT2); minimal medium without Trp, Leu, His, with 5 mM 3-AT; every clone confirmed one-to-one with its bait by beta-galactosidase filter assay, empty bait vector as control
Details in all cases: remark: other sources report otherwise
[1] = biological target: T1, human septin 10 (human), Q9P0V9
T1 chain: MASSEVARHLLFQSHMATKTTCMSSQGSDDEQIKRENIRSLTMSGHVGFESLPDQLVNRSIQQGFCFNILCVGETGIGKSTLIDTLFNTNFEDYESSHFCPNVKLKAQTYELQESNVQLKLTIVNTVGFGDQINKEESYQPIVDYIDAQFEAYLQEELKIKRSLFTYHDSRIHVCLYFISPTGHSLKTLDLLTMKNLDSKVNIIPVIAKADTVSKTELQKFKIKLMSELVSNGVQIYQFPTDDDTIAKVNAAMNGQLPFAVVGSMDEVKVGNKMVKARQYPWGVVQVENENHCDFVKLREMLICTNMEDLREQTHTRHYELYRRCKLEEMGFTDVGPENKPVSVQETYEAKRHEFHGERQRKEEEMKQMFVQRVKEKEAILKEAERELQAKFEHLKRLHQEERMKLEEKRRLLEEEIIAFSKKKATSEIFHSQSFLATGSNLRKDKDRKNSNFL

[2] = biological target: T2, human septin 6 (human), Q14141
T2 chain: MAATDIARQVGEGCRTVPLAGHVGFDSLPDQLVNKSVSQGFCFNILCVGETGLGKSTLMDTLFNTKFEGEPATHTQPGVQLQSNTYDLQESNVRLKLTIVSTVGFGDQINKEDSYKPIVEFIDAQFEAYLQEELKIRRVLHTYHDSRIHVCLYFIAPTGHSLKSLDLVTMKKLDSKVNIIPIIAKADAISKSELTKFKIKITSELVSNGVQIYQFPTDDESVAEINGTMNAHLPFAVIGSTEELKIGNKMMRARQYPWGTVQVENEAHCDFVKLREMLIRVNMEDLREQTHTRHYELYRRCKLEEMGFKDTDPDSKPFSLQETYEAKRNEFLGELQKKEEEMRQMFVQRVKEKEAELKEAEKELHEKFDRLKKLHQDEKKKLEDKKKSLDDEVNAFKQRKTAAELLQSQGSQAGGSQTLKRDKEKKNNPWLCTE

[3] = biological target: T3, human septin 8 (human), Q92599
T3 chain: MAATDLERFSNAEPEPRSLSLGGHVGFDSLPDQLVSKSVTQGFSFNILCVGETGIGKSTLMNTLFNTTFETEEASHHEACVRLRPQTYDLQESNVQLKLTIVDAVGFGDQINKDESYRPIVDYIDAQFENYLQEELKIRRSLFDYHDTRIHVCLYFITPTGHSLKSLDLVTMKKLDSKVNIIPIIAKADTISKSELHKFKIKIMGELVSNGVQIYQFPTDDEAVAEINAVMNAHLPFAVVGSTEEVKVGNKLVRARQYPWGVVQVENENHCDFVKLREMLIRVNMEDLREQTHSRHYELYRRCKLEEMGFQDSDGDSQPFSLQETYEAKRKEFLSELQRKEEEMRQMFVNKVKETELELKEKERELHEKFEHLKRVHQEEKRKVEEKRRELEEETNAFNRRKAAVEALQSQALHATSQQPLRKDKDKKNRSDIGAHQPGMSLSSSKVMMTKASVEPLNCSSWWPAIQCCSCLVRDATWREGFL

Measured: binding

B1: human septin 6, Q14141-1 1-434 (protein)
chain: T2 chain
no binding: all assays above
